# Data as given in the supplement of paper PMC11417369.
# The list shows a part of the results.
# Tested on: PfSIP2 AP2 domain 1 (GST-tagged)
# Assay: gcPBM binding intensity (ln(normalized median fluorescence intensity)); higher = stronger DNA binding
# In short: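 An Agilent 4 × 180k array of primer-extended double-stranded 36-bp intergenic genomic probes, with negative controls, was incubated for 1 h with GST-tagged P. falciparum DNA-binding domains expressed in E. coli. Alexa488 anti-GST antibody detected bound protein, scanned at 488 nm. Binding intensity is the highest Masliner-normalised natural-log median intensity across replicate spots of either probe orientation.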
row,Sequence,gcPBM binding intensity (ln)
1,ATAGAACTATATTGCACACATAATATATATATATAT [CACACA_site3189],9.35
2,GTAAAAAATATGACAAGTACAAGAAAAGAAAAAAGT [XGTACX_site7906],7.61
3,AAAAGATTTATACATACACACATATTATATTCACAT [CACACA_site3713],7.02
4,TTATAATATATATACAGTACATATATAAAATAATAT [XGTACX_site5917],7.01
5,TTTTCTTGGTTCAGTGTGCACTTATATATATATATA,9.93
6,TAATATAAAGAAAAGGAACACACAAATATATATATA [CACACA_site8049],8.72
7,TTATTTTATAATAAAAGTACACAAAAAAAAAAAAAA [XGTACX_site7668],7.03
8,ATATATATAATATGCGGTACACATTAATTAAATCAT [XGTACX_site5702],7.81
9,TTATTTCTCTTTTCAGTGCATTTTATAACAAAAAAA [GTGCAC_site9930],8.96
10,GTAGAGCATAATAAAACACACACATACATACATATA [CACACA_site8217],7.32
11,ATGGACATCTATTGTTGTACACATTTTCCCATAACA [XGTACX_site5429],7.26
12,TTTCAAAAATGAGTTACACACACACGGATATAAATA [CACACA_site7116],6.92
13,GAATATAAAATATATATATATATATATATATATATA [GTGCAC_negctrl_site425],9.24
14,ATATAATAAAATGACACACGCATATATATATATATA [CACACA_site2789],9.25
15,TTATATTTATTTATTTGTACATATTTTTTTTTATAT [XGTACX_site1669],7.02
16,TTTCTTTTTAAATATATACACACCGTGGGTACATAT [CACACA_site9102],7.05
17,TCATATCTTTTGAGCACACATATATATATATAAAGG [CACACA_site3338],7.35
18,ATTAATATTCTATATGCATGTGAACCATGGTATATA [TGCATGCA_site430],7.01
19,ATATATATATATATATGTACTTATTTATCGTATTAT [XGTACX_site3520],9.31
20,ATAAAATATTAATTTTAAATTAATCAATATATATAA [GTGCAC_negctrl_site474],6.7
21,AGGCTCAAATCTAGGTGTACCATTATCGTTGTATCT [XGTACX_site4730],6.67
22,ATTTTTTCTTATAATGCATGTAGAAAACCGTACAGC [TGCATGCA_site57],7.06
23,TATGTGTTTATTTGGTGTACATACTAATAAATATAC [XGTACX_site1682],7.55
24,CCTAAATTATATTATGCACACTTAAAAATATATTTA [CACACA_site5861],8.62
25,ATTATGTATATAAATTAACACACATATGTGGTTAAT [CACACA_site9028],6.91
